Among all 48,000 compounds or so, about 120 (0.25%) were called active. Another 4% or so got no clear call; they are omitted. Calls come from the whole dose curve; as a rule, active = well fitted activation curve with a large enough effect; inconclusive = small, poorly fitted or top-dose-only effect, or another doubt; inactive = no such curve, though single readings can be large or run the other way. This is one part of the list.
experiment: Primary qHTS for Identification of Small Molecule Activators of Huntingtin-Antisense Promoter Activity; settings: HEK293 HTT-AS promoter firefly luciferase reporter (activity 0% = vehicle and -100% = no light), 24 h; series mostly up to 57.5 µM; activity change, positive = activation: at the top concentration; note: nearly all actives have a fitted effect of over 55% in size
How it was run: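 Luminescence was read after Dual-Glo reagent and a 10 min room-temperature incubation. Values were normalized to vehicle (0% activity) and zero RLU (-100% activity). Reporter HEK293 cells had been exposed to compounds (up to 57.5 uM final) for 24 h.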

Structure (SMILES) | activity change, positive = activation
Cc1ccc(CNC(=O)c2cnc(N3CCCCC3)c3ccccc23)cc1 | inactive: -20.3%
CCN1CCC[C@H]1CNC(=O)c1c(O)c(Cl)cc(Cl)c1OC | inactive: -1.45%
Cc1ccc(C)c(NC(=O)Cn2nnc(C(=O)NCCc3ccccc3)c2N)c1 | inactive: -14.4%
CCOC(=O)c1ccc(NC(=O)C(CC)Sc2nnc3c4ccccc4n(C)c3n2)cc1 (configuration not stated) | inactive: -4.87%
CC[C@@H]([C@H](C)O)n1ncn(-c2ccc(N3CCN(c4ccc(OC[C@@H]5CO[C@@](Cn6cncn6)(c6ccc(F)cc6F)C5)cc4)CC3)cc2)c1=O | inactive: -10.9%
Cc1cc(C)c(NC(=O)Cn2c(=O)n(Cc3ccc4c(c3)OCO4)c(=O)c3ccccc32)c(C)c1 | inactive: -10.4%
CCC1=Nc2cc(C(=O)NCc3ccccc3Cl)ccc2Sc2ccc(C)cc21 | inactive: -32.7%
N#Cc1cccc(Nc2ncnc3c2cnn3-c2cccc(Cl)c2)c1 | inactive: 17.5%
O=C(CSc1nncn2c1cc1occc12)Nc1ccccc1C(F)(F)F | inactive: -30.8%
CCc1ccccc1NC(=O)CN(c1cccc(C)c1C)S(C)(=O)=O | inactive: -23.1%
CCOC(=O)C1CCCN(S(=O)(=O)c2ccc3c(c2)CCN3C(=O)CC)C1 (configuration not stated) | inactive: -26.7%
Cc1cccc2sc(N3CCN(C(=O)CS(=O)(=O)c4ccc(F)cc4)CC3)nc12 | inactive: -11.8%
CCOC(=O)c1c(C)[nH]c(CCC(=O)Nc2c(Cl)cc(OC)cc2OC)c1C | inactive: -25.4%
CCCc1nc2nc(C)c(NS(=O)(=O)c3ccc(F)cc3)c(=O)n2[nH]1 | inactive: 9.19%
Cc1cc(C(=O)N2CCN(c3ccc(F)cc3)CC2)c2c(C)nn(-c3cccc(Cl)c3C)c2n1 | inactive: -13.4%
CCc1ccc(S(=O)(=O)c2cnc3ccc(OC)cc3c2N2CCCC(C)C2)cc1 (configuration not stated) | inactive: -24%
COc1ccc(CNC(=O)Cn2c(=O)nc(-c3ccccc3F)c3cc(Cl)ccc32)cc1OC | inactive: -9.7%
CCOC(=O)c1noc2ncnc(N3CCN(c4cccc(Cl)c4)CC3)c12 | inactive: -10.1%
CCOC(=O)N1CCc2c(sc3c2c(=O)n(-c2ccc(Cl)cc2)c(=O)n3Cc2cccc(OC)c2)C1 | inactive: -24.9%
COc1ccc(-c2nc3nc(C)cc(N4CCN(c5cccc(C(F)(F)F)c5)CC4)n3n2)cc1 | inactive: -6.3%
COCCCNC(=O)c1ccc(Cn2c(=O)c3ccccc3n(CC(=O)Nc3ccc(C)cc3C)c2=O)cc1 | inactive: -4.11%
Cc1cc(C)cc(NC(=O)Cn2nnc(C(=O)NCc3ccccc3Cl)c2N)c1 | inactive: -21.6%
CCOc1ccc(C(=O)Nc2ccccc2C(=O)OCc2cc(=O)n3nc(C4CC4)sc3n2)cc1 | inactive: 35%
COc1ccc(CCNC(=O)c2cc3c(s2)-c2c(C)cccc2OC3)c(OC)c1 | inactive: -20.9%

Structure (SMILES) | activity change, positive = activation
Cc1cccc(N2CC(c3nc4ccccc4n3CCC3CCCCC3)CC2=O)c1 (configuration not stated) | inactive: -47.2%
Cc1cccc2c1-c1sc(C(=O)NCc3ccc(Cl)cc3)cc1CO2 | inactive: -3.99%
CCN(Cc1ccccc1)C(=O)c1cc2c(=O)oc3ccc(C)cc3c2s1 | inactive: -6.4%
Cc1ccc(-c2nc(S(=O)(=O)c3ccc(C)cc3)c(SCC(=O)Nc3ccc(F)cc3)o2)cc1 | inactive: -8.81%
CCc1ccc(S(=O)(=O)c2nnn3c2nc(Nc2cc(OC)cc(OC)c2)c2cc(Cl)ccc23)cc1 | inactive: 0%
CCOc1ccccc1CNC(=O)c1cn(-c2ccc(OC)cc2)c(=O)c2ccccc12 | inactive: -20.4%
COc1cccc(C2=C(C(C)=O)Sc3nnc(C4CCCCC4)n3N2C(C)=O)c1 | inactive: -44%
CCOc1ccc(NC(C)=O)cc1 | inactive: -9.62%
COc1cccc(CNC(=O)CSc2n[nH]c(-c3ccccc3Cl)n2)c1OC | inactive: -19.9%
Cc1cccc(NC(=O)CSc2nc(=O)n(Cc3ccco3)c3c2CCC3)c1C | inactive: -18.8%
CCOc1ccc(NC(=O)[C@H]2O[C@@H]3OC(C)(C)O[C@@H]3[C@H]3OC(C)(C)O[C@H]32)cc1 | inactive: -48.4%
CN1CCC[C@@H]1CCO[C@](C)(c1ccccc1)c1ccc(Cl)cc1 | inactive: -17.3%
O=c1c(N2CCN(c3cccc(Cl)c3)CC2)csc2ccccc12 | inactive: -10.3%
Cc1cc(C)cc(NC(=O)C(=O)NCCCN2CCOCC2)c1 | inactive: -4.96%
Cc1ccc2cc3cc(C(=O)N4CCN(c5ccccc5)CC4)oc3nc2c1 | inactive: -14.3%
CCc1nn(CC(=O)NCc2ccccc2Cl)c(=O)c2cc3ccccc3n12 | inactive: -6.51%
CCOc1ccc(CN(C(=O)c2nc(SC)ncc2Cl)C2CCS(=O)(=O)C2)cc1 (configuration not stated) | inactive: 4.97%
O=C(Nc1nc2ccc(S(=O)(=O)N3CCCC3)cc2s1)c1ccc(F)cc1 | inactive: -25.5%
CC1CCCCN1CCCNC(=O)c1ccc2c(c1)sc1nc(-c3ccc(F)cc3)cn12 (configuration not stated) | inactive: 13.7%
CCc1ccc(Oc2c(C(F)(F)F)oc3c(CN4CCN(CC)CC4)c(O)ccc3c2=O)cc1 | inactive: -26.9%
COc1ccc(C(=O)NCC(c2ccc(N(C)C)cc2)N2CCCC2)cc1 (configuration not stated) | inactive: -8.49%
CC(=O)c1ccc(N2CCN(c3nc4c(S(=O)(=O)c5ccc(C)c(C)c5)nnn4c4ccc(Cl)cc34)CC2)cc1 | inactive: 6.48%
Cc1cc(C)cc(-n2ccnc2SCC(=O)Nc2ccc(C)cc2C)c1 | inactive: -17.9%

Reference: PubChem BioAssay AID1508624 (National Center for Advancing Translational Sciences (NCATS), 2021)
